Test results: paper PMC4336329 (PLoS ONE, 2015)
In all, about 310,000 compounds went through this assay and about 2,200 (0.71%) showed an effect of 50% or more. The effect is printed as a negative number. The list shows a part of the results.

molecular target: human ether-à-go-go-related gene (hERG) potassium channel (human, UniProt Q12809); test: primary screen, population patch clamp on CHO cells stably expressing hERG
Sequence (Q12809 whole entry, looked up): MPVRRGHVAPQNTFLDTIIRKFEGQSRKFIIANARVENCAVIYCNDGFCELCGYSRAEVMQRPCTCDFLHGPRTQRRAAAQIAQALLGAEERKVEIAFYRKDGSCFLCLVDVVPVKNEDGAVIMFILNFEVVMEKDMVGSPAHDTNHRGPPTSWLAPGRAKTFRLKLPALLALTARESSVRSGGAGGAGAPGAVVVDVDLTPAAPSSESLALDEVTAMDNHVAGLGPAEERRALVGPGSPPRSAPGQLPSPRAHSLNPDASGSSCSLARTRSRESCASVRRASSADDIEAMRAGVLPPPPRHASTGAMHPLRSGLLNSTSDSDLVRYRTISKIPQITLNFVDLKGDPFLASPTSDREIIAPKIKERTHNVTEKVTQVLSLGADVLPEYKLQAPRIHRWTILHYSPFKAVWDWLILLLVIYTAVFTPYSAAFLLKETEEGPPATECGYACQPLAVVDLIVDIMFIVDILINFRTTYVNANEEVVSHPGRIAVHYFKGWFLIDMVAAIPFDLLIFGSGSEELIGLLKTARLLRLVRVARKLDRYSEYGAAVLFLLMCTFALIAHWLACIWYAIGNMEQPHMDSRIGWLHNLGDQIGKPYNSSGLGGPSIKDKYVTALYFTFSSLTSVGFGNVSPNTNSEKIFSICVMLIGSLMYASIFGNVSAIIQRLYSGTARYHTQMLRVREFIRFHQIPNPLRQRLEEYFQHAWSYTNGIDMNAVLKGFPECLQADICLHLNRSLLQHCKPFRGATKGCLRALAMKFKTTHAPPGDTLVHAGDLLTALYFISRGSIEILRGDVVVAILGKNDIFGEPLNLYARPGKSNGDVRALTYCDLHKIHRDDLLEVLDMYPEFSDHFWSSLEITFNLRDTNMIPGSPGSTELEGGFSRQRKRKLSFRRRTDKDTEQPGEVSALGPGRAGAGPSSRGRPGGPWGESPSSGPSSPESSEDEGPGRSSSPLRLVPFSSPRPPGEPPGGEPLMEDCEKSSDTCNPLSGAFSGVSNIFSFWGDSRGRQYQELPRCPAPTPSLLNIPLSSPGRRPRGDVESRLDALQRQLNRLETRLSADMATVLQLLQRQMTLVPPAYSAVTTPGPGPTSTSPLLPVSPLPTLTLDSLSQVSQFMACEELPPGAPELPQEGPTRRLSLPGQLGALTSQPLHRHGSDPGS

SMILES | hERG current change (%, negative = inhibition) at 1uM [%]
COc1c(Br)cc2c(C)c(C(=O)N3CCOCC3)oc2c1Br | 7.21
CC(Sc1nc(N)cc(N)n1)C(=O)NCC1CCCO1 (centres unmarked) | 9.79
CCc1ccccc1-n1c(SCC(=O)Nc2ccc3c(c2)OCCO3)nc2[nH]ncc2c1=O | 8.23
O=C(O)CC/C(=N/Nc1ccc([N+](=O)[O-])cc1)C(=O)O | 11.1
O=C(CCCc1ccccc1)Nc1ccnn1C1CCN(Cc2ccc(CO)o2)CC1 | -2.31
Cc1cc(Br)ccc1NC(=O)CN(C)C(=O)COc1cccc2c1OC(C)(C)C2 | 6.94
O=C(NCc1ccco1)C1CCCN(S(=O)(=O)c2cnc[nH]2)C1 (centres unmarked) | -0.476
CC1(C(=O)Nc2nnc(C(C)(C)C)s2)Cc2ccccc2C(=O)O1 (centres unmarked) | 2.79
COc1ccc(-c2cc(C(F)(F)F)nc(NC3CCCC3)n2)cc1OC | -3.53
COc1ccc(C(=O)n2cnc3ccccc32)cc1 | 11.1
Cc1c(NC(=O)c2c(F)cccc2F)c(=O)n(-c2ccccc2)n1C | -0.581
O=C1NC(=S)S/C1=C\c1coc2ccc(O)cc2c1=O | 15.3
CCOC(=O)C1=C(C)N(CCCCCC(=O)O)C(=O)NC1c1ccc(Br)cc1 (centres unmarked) | 12.4
COc1ccc(S(=O)(=O)Nc2cc3c4c(oc3c3ccccc23)CCCC4=O)cc1 | 17.4
Nc1ccc2nc(NC(=O)C3CCCCC3)sc2c1 | 2.24
O=C(CNCC1(N2CCOCC2)CCCCC1)Nc1ccc(Cl)cc1 | -36
O=C(NCc1ccccn1)c1nc(-c2ccc(C(F)(F)F)cc2)no1 | -1.11
COc1ccc2[nH]c(=O)c(CN(C(=O)c3ccco3)C3CCCCC3)cc2c1 | 9.93
CCCCc1ccc(NC(=O)CC(C)C)cc1 | 9.98

SMILES | hERG current change (%, negative = inhibition) at 1uM [%]
Cc1cc2c(cc1C)CSC(c1ccccc1O)SC2 | 3.04
CCOc1cc(C)c(C(C)C)cc1S(=O)(=O)n1ccc(C)n1 | -9.63
COc1ccc(C(=O)/C=C2/Sc3cc4c(cc3N2C)OCO4)cc1 | 15.9
Cl.OC1(c2ccc3ccccc3c2)CCN(Cc2ccccc2)C1 (centres unmarked) | -15.7
COc1cccc(/C=C/C(=O)OCC(=O)N2CCN(c3ccccc3)CC2)c1 | 3.99
O=C(COC(=O)C12CC3CC(CC(C3)C1)C2)N1CCN(S(=O)(=O)c2ccccc2)CC1 | 11.8
Cc1cccc(NC(=O)c2oc3ccc(S(=O)(=O)N4CCOCC4)cc3c2C)c1C | 3.13
Br.N=c1ccn(CC(=O)c2ccc(-c3ccccc3)cc2)cc1 | -1.45
COc1ccc(C(=O)N/N=C/c2ccc(OC)c(CSc3ccccn3)c2)cc1 | 3.5
COc1ccc(-c2cc(C(=O)Nc3cc(C)nn3-c3ccccc3)no2)cc1OC | 8.63
Cc1cnc(C(=O)OCC(=O)NC(=O)NC(C)C)cn1 | 12
O=C(N/N=C/c1cc(Cl)ccc1O)c1ccc(Br)cc1 | 18.2
COc1ccc(C(=O)NNC(=O)CN2CCN(c3nc(-c4ccccc4)cs3)CC2)cc1 | 4.21
COc1ccccc1[As](=O)(O)CC(O)COc1ccc(Cl)cc1Cl (centres unmarked) | -1.61
CN(C)c1ccc(N=C/C=C2\N(C)c3ccccc3C2(C)C)cc1 | -84.7
CCC1=Nc2cc(C(=O)NCCN3CCOCC3)ccc2Sc2ccc(Br)cc21 | 13.6
c1ccc(-n2c(-c3cccs3)nc3nc4ccccc4nc32)cc1 | 6.03
CN(CC(=O)NCc1ccc(Cl)cc1)S(=O)(=O)c1cccs1 | 8.22
COc1cc(CC(=O)Nc2ccccc2N2CCCCC2)cc(OC)c1OC | 10.6

SMILES | hERG current change (%, negative = inhibition) at 1uM [%]
O=C(O)C(=O)O.O=C(c1cccc(Cl)c1)N1CCN(C2CCCCC2)CC1 | -14.6
COc1ccc2[nH]c3c(=O)n4c(nc3c2c1)SCCC4 | 3.3
Cc1cc(C)cc(NC(=O)CCc2ccc(C)o2)c1 | -5.53
CN1C[C@H](C(=O)N[C@]2(C)O[C@@]3(O)[C@@H]4CCCN4C(=O)[C@H](Cc4ccccc4)N3C2=O)CC2c3cccc4[nH]cc(c34)C[C@H]21.O=C(O)C(O)C(O)C(=O)O (some centres unmarked) | 12.3
NNC(=O)c1[nH]c2ccccc2c1-c1ccccc1 | 21.8
Cc1c(Cl)cccc1NC(=O)N1CCCN(c2nc(-c3ccccc3)ns2)CC1 | 14.4
CC1=NN(C(N)=S)C(=O)C1N=Nc1ccc(C)cc1C (centres unmarked) | -4.82
COc1ccc(CCNC(=O)C2=CC=CN3CCS(=O)(=O)N=C23)cc1 | -1.47
CN(Cc1cccc(F)c1)C(=O)c1ccc(S(=O)(=O)N2CCOCC2)cc1 | 9.45
CCc1noc(C)c1C(=O)N1CCN(S(=O)(=O)c2ccccc2C(F)(F)F)CC1 | 14.1
Cc1cccc(C)c1NC(=O)CCN1C(=O)C2C3CCC(C3)C2C1=O (centres unmarked) | 3.55
Cc1ccc(S(=O)(=O)N2CCN(CC(=O)N/N=C/c3ccccc3OCC(=O)O)CC2)cc1 | 11.9
CCCS(=O)(=O)n1nc(-c2ccc(OC)cc2OC)cc1N | -0.602
COC(=O)CSc1nsc(SCC(=O)OC)c1C#N | 11.3
COc1ccc(NC(=O)Cc2ccc(-c3ccccc3)cc2)cn1 | -0.834
CC(=O)c1cccc(N(CC(=O)N2CCOCC2)S(C)(=O)=O)c1 | 9.93
C=CCn1c(Cc2csc(N)n2)nnc1SCc1ccc(C(=O)OC)cc1 | 1.97
C#Cc1ccc([C@@H]2C=C(C(=O)NCc3nc4ccccc4[nH]3)O[C@H](OCC)[C@H]2CCCO)cc1 | -3.64
